# Data taken from the supplement of paper PMC8728848.
# The other results are listed elsewhere or left out.
# Key:
# Assay in all cases: glycan array binding signal (z-score within array); higher = stronger binding
# Settings in all cases: glycan notation: IUPAC condensed, linker removed
# [1] = molecular target: Neu5Ac(a2-3)Gal
# In short: (§1)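 Negative Z-scores can be read as non-binding. The Z-score is calculated within each array and then averaged across arrays of one protein sequence at different concentrations or buffers and across linkers. Arrays, 3228 in all, were curated from the Consortium for Functional Glycomics database and kept only where the protein sequence was available.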
# [2] = molecular target: Neu5Ac(a2-3)Gal(b1-3)GalNAc
# In short: as §1
# [3] = molecular target: Neu5Ac(a2-3)Gal(b1-3)GalNAc(b1-3)Gal(a1-4)Gal(b1-4)Glc
# In short: as §1
# [4] = molecular target: Neu5Ac(a2-3)Gal(b1-3)GalNAc(b1-4)Gal(b1-4)Glc
# In short: as §1
# [5] = molecular target: Neu5Ac(a2-3)Gal(b1-3)GalNAc(b1-4)[Neu5Ac(a2-3)]Gal(b1-4)Glc
# In short: as §1
# [6] = molecular target: Neu5Ac(a2-3)Gal(b1-3)GalNAc(b1-4)[Neu5Ac(a2-8)Neu5Ac(a2-3)]Gal(b1-4)Glc
# In short: as §1
# [7] = molecular target: Neu5Ac(a2-3)Gal(b1-3)GalNAc6S
# In short: as §1
# [8] = molecular target: Neu5Ac(a2-3)Gal(b1-3)GlcNAc
# In short: as §1
# [9] = molecular target: Neu5Ac(a2-3)Gal(b1-3)GlcNAc(b1-2)Man
# In short: as §1
# [10] = molecular target: Neu5Ac(a2-3)Gal(b1-3)GlcNAc(b1-2)Man(a1-3)[GlcNAc(b1-4)][Neu5Ac(a2-3)Gal(b1-3)GlcNAc(b1-2)Man(a1-6)]Man(b1-4)GlcNAc(b1-4)GlcNAc
# In short: as §1
# [11] = molecular target: Neu5Ac(a2-3)Gal(b1-3)GlcNAc(b1-2)Man(a1-3)[Neu5Ac(a2-3)Gal(b1-3)GlcNAc(b1-2)Man(a1-6)]Man(b1-4)GlcNAc(b1-4)GlcNAc
# In short: as §1
# [12] = molecular target: Neu5Ac(a2-3)Gal(b1-3)GlcNAc(b1-2)[Neu5Ac(a2-3)Gal(b1-3)GlcNAc(b1-4)]Man(a1-6)[Neu5Ac(a2-3)Gal(b1-3)GlcNAc(b1-2)Man(a1-3)]Man(b1-4)GlcNAc(b1-4)GlcNAc
# In short: as §1
# [13] = molecular target: Neu5Ac(a2-3)Gal(b1-3)GlcNAc(b1-3)Gal(b1-3)GlcNAc
# In short: as §1
# [14] = molecular target: Neu5Ac(a2-3)Gal(b1-3)GlcNAc(b1-3)Gal(b1-4)GlcNAc
# In short: as §1
# [15] = molecular target: Neu5Ac(a2-3)Gal(b1-3)GlcNAc(b1-3)GalNAc
# In short: as §1
# [16] = molecular target: Neu5Ac(a2-3)Gal(b1-3)GlcNAc(b1-6)GalNAc
# In short: as §1
# [17] = molecular target: Neu5Ac(a2-3)Gal(b1-3)GlcNAc6S
# In short: as §1
# [18] = molecular target: Neu5Ac(a2-3)Gal(b1-3)[Fuc(a1-4)]GlcNAc
# In short: as §1
# [19] = molecular target: Neu5Ac(a2-3)Gal(b1-3)[Fuc(a1-4)]GlcNAc(b1-3)Gal(b1-3)[Fuc(a1-4)]GlcNAc
# In short: as §1
# [20] = molecular target: Neu5Ac(a2-3)Gal(b1-3)[Fuc(a1-4)]GlcNAc(b1-3)Gal(b1-4)[Fuc(a1-3)]GlcNAc
# In short: as §1
# [21] = molecular target: Neu5Ac(a2-3)Gal(b1-3)[GlcNAc(b1-6)]GalNAc
# In short: as §1
# [22] = molecular target: Neu5Ac(a2-3)Gal(b1-3)[Neu5Ac(a2-6)]GalNAc
# In short: as §1
# [23] = molecular target: Neu5Ac(a2-3)Gal(b1-3)[Neu5Ac(a2-6)]GlcNAc(b1-3)[Fuc(a1-3)[Gal(b1-4)]GlcNAc(b1-6)]Gal(b1-4)Glc
# In short: as §1
# [24] = molecular target: Neu5Ac(a2-3)Gal(b1-3)]Neu5Ac(a2-3)Gal(b1-4)]GlcNAc
# In short: as §1
# [25] = molecular target: Neu5Ac(a2-3)Gal(b1-4)Glc
# In short: as §1
# [26] = molecular target: Neu5Ac(a2-3)Gal(b1-4)GlcNAc
# In short: as §1
# [27] = molecular target: Neu5Ac(a2-3)Gal(b1-4)GlcNAc(b1-2)Man
# In short: as §1
# [28] = molecular target: Neu5Ac(a2-3)Gal(b1-4)GlcNAc(b1-2)Man(a1-3)[GlcNAc(b1-4)][Neu5Ac(a2-3)Gal(b1-4)GlcNAc(b1-2)Man(a1-6)]Man(b1-4)GlcNAc(b1-4)GlcNAc
# In short: as §1
# [29] = molecular target: Neu5Ac(a2-3)Gal(b1-4)GlcNAc(b1-2)Man(a1-3)[Neu5Ac(a2-3)Gal(b1-4)GlcNAc(b1-2)Man(a1-6)]Man(b1-4)GlcNAc(b1-4)GlcNAc
# In short: as §1
# [30] = molecular target: Neu5Ac(a2-3)Gal(b1-4)GlcNAc(b1-2)Man(a1-3)[Neu5Ac(a2-3)Gal(b1-4)GlcNAc(b1-2)Man(a1-6)]Man(b1-4)GlcNAc(b1-4)[Fuc(a1-6)]GlcNAc
# In short: as §1
# [31] = molecular target: Neu5Ac(a2-3)Gal(b1-4)GlcNAc(b1-2)Man(a1-3)[Neu5Ac(a2-6)Gal(b1-4)GlcNAc(b1-2)Man(a1-6)]Man(b1-4)GlcNAc(b1-4)GlcNAc
# In short: as §1
# [32] = molecular target: Neu5Ac(a2-3)Gal(b1-4)GlcNAc(b1-2)[Neu5Ac(a2-3)Gal(b1-4)GlcNAc(b1-4)]Man(a1-3)[GlcNAc(b1-4)][Neu5Ac(a2-3)Gal(b1-4)GlcNAc(b1-2)[Neu5Ac(a2-3)Gal(b1-4)GlcNAc(b1-6)]Man(a1-6)]Man(b1-4)GlcNAc(b1-4)GlcNAc
# In short: as §1
# [33] = molecular target: Neu5Ac(a2-3)Gal(b1-4)GlcNAc(b1-2)[Neu5Ac(a2-3)Gal(b1-4)GlcNAc(b1-4)]Man(a1-3)[GlcNAc(b1-4)][Neu5Ac(a2-3)Gal(b1-4)GlcNAc(b1-4)Man(a1-6)]Man(b1-4)GlcNAc(b1-4)GlcNAc
# In short: as §1
# [34] = molecular target: Neu5Ac(a2-3)Gal(b1-4)GlcNAc(b1-2)[Neu5Ac(a2-3)Gal(b1-4)GlcNAc(b1-6)]Man(a1-6)[Neu5Ac(a2-3)Gal(b1-4)GlcNAc(b1-2)Man(a1-3)][GlcNAc(b1-4)]Man(b1-4)GlcNAc(b1-4)GlcNAc
# In short: as §1
# [35] = molecular target: Neu5Ac(a2-3)Gal(b1-4)GlcNAc(b1-3)Gal
# In short: as §1
# [36] = molecular target: Neu5Ac(a2-3)Gal(b1-4)GlcNAc(b1-3)Gal(b1-3)GlcNAc
# In short: as §1
# [37] = molecular target: Neu5Ac(a2-3)Gal(b1-4)GlcNAc(b1-3)Gal(b1-4)GlcNAc
# In short: as §1
# [38] = molecular target: Neu5Ac(a2-3)Gal(b1-4)GlcNAc(b1-3)Gal(b1-4)GlcNAc(b1-2)Man(a1-3)[Neu5Ac(a2-3)Gal(b1-4)GlcNAc(b1-3)Gal(b1-4)GlcNAc(b1-2)Man(a1-6)]Man(b1-4)GlcNAc(b1-4)GlcNAc
# In short: as §1
# [39] = molecular target: Neu5Ac(a2-3)Gal(b1-4)GlcNAc(b1-3)Gal(b1-4)GlcNAc(b1-3)Gal(b1-4)GlcNAc
# In short: as §1
# [40] = molecular target: Neu5Ac(a2-3)Gal(b1-4)GlcNAc(b1-3)Gal(b1-4)GlcNAc(b1-3)Gal(b1-4)GlcNAc(b1-2)Man(a1-3)[Neu5Ac(a2-3)Gal(b1-4)GlcNAc(b1-3)Gal(b1-4)GlcNAc(b1-3)Gal(b1-4)GlcNAc(b1-2)Man(a1-6)]GalNAc
# In short: as §1
# [41] = molecular target: Neu5Ac(a2-3)Gal(b1-4)GlcNAc(b1-3)Gal(b1-4)GlcNAc(b1-3)GalNAc
# In short: as §1
# [42] = molecular target: Neu5Ac(a2-3)Gal(b1-4)GlcNAc(b1-3)Gal(b1-4)GlcNAc(b1-3)[Neu5Ac(a2-3)Gal(b1-4)GlcNAc(b1-3)Gal(b1-4)GlcNAc(b1-6)]GalNAc
# In short: as §1
# [43] = molecular target: Neu5Ac(a2-3)Gal(b1-4)GlcNAc(b1-3)Gal(b1-4)GlcNAc(b1-6)[Gal(b1-3)]GalNAc
# In short: as §1
# [44] = molecular target: Neu5Ac(a2-3)Gal(b1-4)GlcNAc(b1-3)Gal(b1-4)[Fuc(a1-3)]GlcNAc
# In short: as §1
# [45] = molecular target: Neu5Ac(a2-3)Gal(b1-4)GlcNAc(b1-3)GalNAc
# In short: as §1
binder,measurement,setting,value
DC-ASGPR-short (Homo sapiens) (protein) MTRTYENFQYLENKVKVQGFKNGPLPLQSLLQRLRSGPCHLLLSLGLGLLLLVIICVVGFQNSKFQRDLVTLRTDFSNFTSNTVAEIQALTSQGSSLEETIASLKAEVEGFKQERQAVHSEMLLRVQQLVQDLKKLTCQVATLNNNASTEGTCCPVNWVEHQDSCYWFSHSGMSWAEAEKYCQLKNAHLVVINSREEQNFVQKYLGSAYTWMGLSDPEGAWKWVDGTDYATGFQNWKPGQPDDWQGHGLGGGEDCAHFHPDGRWNDDVCQRPYHWVCEAGLGQTSQESH,glycan array binding signal (z-score),[1],-0.283
same,glycan array binding signal (z-score),[2],-0.235
same,glycan array binding signal (z-score),[3],-0.277
same,glycan array binding signal (z-score),[4],-0.281
same,glycan array binding signal (z-score),[5],-0.283
same,glycan array binding signal (z-score),[6],-0.231
same,glycan array binding signal (z-score),[7],-0.279
same,glycan array binding signal (z-score),[8],-0.279
same,glycan array binding signal (z-score),[9],-0.272
same,glycan array binding signal (z-score),[10],-0.262
same,glycan array binding signal (z-score),[11],-0.264
same,glycan array binding signal (z-score),[12],-0.221
same,glycan array binding signal (z-score),[13],-0.289
same,glycan array binding signal (z-score),[14],-0.286
same,glycan array binding signal (z-score),[15],-0.276
same,glycan array binding signal (z-score),[16],5.92
same,glycan array binding signal (z-score),[17],-0.065
same,glycan array binding signal (z-score),[18],-0.258
same,glycan array binding signal (z-score),[19],-0.215
same,glycan array binding signal (z-score),[20],-0.124
same,glycan array binding signal (z-score),[21],-0.964
same,glycan array binding signal (z-score),[22],-0.224
same,glycan array binding signal (z-score),[23],-0.26
same,glycan array binding signal (z-score),[24],-0.178
same,glycan array binding signal (z-score),[25],-0.261
same,glycan array binding signal (z-score),[26],-0.281
same,glycan array binding signal (z-score),[27],-0.027
same,glycan array binding signal (z-score),[28],-0.272
same,glycan array binding signal (z-score),[29],-0.286
same,glycan array binding signal (z-score),[30],-0.277
same,glycan array binding signal (z-score),[31],-0.292
same,glycan array binding signal (z-score),[32],-0.271
same,glycan array binding signal (z-score),[33],-0.276
same,glycan array binding signal (z-score),[34],-0.281
same,glycan array binding signal (z-score),[35],-0.326
same,glycan array binding signal (z-score),[36],-0.282
same,glycan array binding signal (z-score),[37],-0.282
same,glycan array binding signal (z-score),[38],-0.571
same,glycan array binding signal (z-score),[39],-0.283
same,glycan array binding signal (z-score),[40],0.068
same,glycan array binding signal (z-score),[41],-0.238
same,glycan array binding signal (z-score),[42],-0.3
same,glycan array binding signal (z-score),[43],-0.398
same,glycan array binding signal (z-score),[44],-0.265
same,glycan array binding signal (z-score),[45],-0.051
